From the supplement of paper PMC11417369
± gives the standard deviation of the averaged measurements. The list shows a part of the results.

Test system: PfAP2-I AP2 domain 3 (GST-tagged)
Experiment: gcPBM binding intensity (ln(normalized median fluorescence intensity)); higher = stronger DNA binding
In short: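 Binding intensity is defined as the maximum Masliner-normalised natural-log median intensity across replicate spots for either probe orientation. It was measured on an Agilent 4 × 180k array of primer-extended double-stranded 36-bp intergenic genomic probes and negative controls, to which GST-tagged P. falciparum DNA-binding domains made in E. coli were applied for 1 h in 1× PBS with 1% milk, 0.2 mg/ml BSA, 0.5% salmon testes DNA and 0.03% Triton X-100. Detection was by Alexa488 anti-GST antibody and scanning at 488 nm.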

Row | Sequence | gcPBM binding intensity (ln)
1 | ATACACTTAATATTATGTACATATATAAAAAAAATA [XGTACX_site1500] | 7.99 ± 0.13
2 | TTTTCAGAAAAGAGAAACTTTATTTTTCACAACCGA [TGCATGCA_negctrl_site389] | 7.47 ± 0.67
3 | ATTTTTTATGAAAATAAACACACGATTTATTATATA [CACACA_site1312] | 7.47 ± 0.49
4 | TAAAAAATTATTAAACGTACGAGACTTTTTATCAGT [XGTACX_site2219] | 7.62 ± 0.6
5 | CATAAAAATGGATACACACACATAATATATTTATAT [CACACA_site7669] | 7.74 ± 0.58
6 | ACAATATATTCATATTGTACATAAAATAAGGCTAAC [XGTACX_site6728] | 7.96 ± 0.63
7 | AAATTTTAATTAGGAACACACATATATATATATATA [CACACA_site5673] | 9.52 ± 0.54
8 | TTATATATAGATCACACACACACACCGGTTTTAAAA [CACACA_site4220] | 7.99 ± 0.6
9 | TCTTTTTTAATATAATATATTTTTATTAAGTAAATC [TGCATGCA_negctrl_site408] | 7.54 ± 0.39
10 | TAAATTTATGGACACACACACATATATATATATATA [CACACA_site4620] | 9.45 ± 0.35
11 | TATTTATCTATATATTGTACTTATTAGTCTTAATGT [XGTACX_site4242] | 7.74 ± 0.15
12 | GGTTCTAAAAAGGGAAGTACATGGAAAAATATAAAT [XGTACX_site4639] | 8 ± 0.68
13 | ATCGTTATATAATGTTGTACTTGTTATATATATATA [XGTACX_site7582] | 9.095 ± 0.049
14 | GCATGCACGGAAAAAAGTACATATATAAATTTGGTT [XGTACX_site3393] | 8.2 ± 0.52
15 | AAAATTTAGCAAAGGTGTACAAAAGATAATTAGAGT [XGTACX_site3467] | 8.56 ± 0.5
16 | TTTTTTAAATATATTTGTACATATGAAATAAAGATA [XGTACX_site3841] | 8.05 ± 0.085
17 | AAAATTATTATGAAAAGTACAAATATGTAAACATAC [XGTACX_site5517] | 7.67 ± 0.53
18 | TTTTTCACATCTATAAATCATCTAATCAATATTTTT [GTGCAC_negctrl_site444] | 7.78 ± 0.38
19 | ATTCTAATTAGTAAAGTGCAGATAAAATGATGCCCT [GTGCAC_site9578] | 9.3 ± 0.014
20 | ATATGTTTATTTATTTGTACTTATCATATAATAACA [XGTACX_site5486] | 7.92 ± 0.5
21 | TGTATATTTTAGTGATGTACTAATATTATTACTAAT [XGTACX_site3952] | 7.72 ± 0.32
22 | TTAGAAAGAATGTATTGTACATATATATTATATATA [XGTACX_site7045] | 7.66 ± 0.36

Row | Sequence | gcPBM binding intensity (ln)
23 | TGCTTAGCACACTATCTACTTCCTTTGTTTCATAAA [GTGCAC_negctrl_site495] | 8.55 ± 0.26
24 | TTCATTTATATAATCACACATTTTATCATCTATGTT [CACACA_site4327] | 7.74 ± 0.74
25 | TGAGTATATAAATACACACACATATATATATTTTAA [CACACA_site5130] | 7.63 ± 0.32
26 | TTTTATTTTTAAGGATGTACTCAATTGTTTATATAC [XGTACX_site3965] | 7.79 ± 0.4
27 | TTTTTTTTTAATAAAATTATAATAAATATGAAATTA [XGTACX_negctrl_site369] | 7.5 ± 0.15
28 | ATATATATATATATATGTACACATATATATACTCAC [XGTACX_site8043] | 9.19 ± 0.37
29 | GCACATATGAATATAATACACACTTGTATTATTAAT [CACACA_site1841] | 8.1 ± 0.52
30 | ATTTTATATACAAAATGTACATATTTATTATATATG [XGTACX_site6732] | 7.74 ± 0.5
31 | AAGGATACGCAAAAATGTACAAAATGCTTATAAATA [XGTACX_site984] | 7.75 ± 0.54
32 | GGAGCTATCTCCTGCACACACAATTTTTTTTTTTTT [CACACA_site2240] | 8.23 ± 0.78
33 | ATTAAAATCATATACACACCCATATATATATATATA [CACACA_site5050] | 9.36 ± 0.37
34 | ATACATATCTACCTATGTACATAATACAACAAAGAT [XGTACX_site323] | 7.95 ± 0.57
35 | GAATAAATACCGGTGTGTACTTAAATCATTCACGAA [XGTACX_site3174] | 7.92 ± 0.3
36 | CTTATATTAAGTATTACACACATATATATAAATGCA [CACACA_site4581] | 7.79 ± 0.33
37 | CCTAAATAAATGGACACACACATATATATATATATA [CACACA_site1439] | 9.47 ± 0.54
38 | TAGAAATAAGAAAAATGTACATATAATATTGAAAGT [XGTACX_site3043] | 8.29 ± 0.67
39 | TATATATATATAAGAAGTACAGAAAATTAGAAAAAA [XGTACX_site8773] | 9.27 ± 0.15
40 | TTTTACGTAATATTTATACACACGAACCTTATTAAT [CACACA_site2300] | 7.79 ± 0.59
41 | AGTCTATAGTAATTTACACACAAAAAAATATCAGGA [CACACA_site7620] | 7.95 ± 0.7
42 | AGTAGTCTGGAGAAAAGTACATAGTATCTGGTAGCT [XGTACX_site2027] | 7.98 ± 0.52
43 | TTTATTGATAATATATATATATATATATATATATAT [GTGCAC_negctrl_site552] | 9.27 ± 0.6
44 | AATATCTTAGTGGATACACACATATAAATGGGTATT [CACACA_site4426] | 7.58 ± 0.53

Row | Sequence | gcPBM binding intensity (ln)
45 | TCATATGTTAAACACACACACACACCGAAAAAAACA [CACACA_site9067] | 8.05 ± 0.39
46 | AAAAAATTAAAAAAAAAAAAATCATGAAAAAAACAA [CACACA_negctrl_site1673] | 7.63 ± 0.47
47 | GTTTTATTCCATTATTGTACTTAATATAAAGAAACT [XGTACX_site3054] | 8.18 ± 0.38
48 | ATAAATTGAAGTAAATTTGACCTTTTTTTTTTTTTT [GTGCAC_negctrl_site354] | 7.97 ± 0.64
49 | ATAATAATATGTGGGTGTACATATACACATATATAT [XGTACX_site4356] | 8.21 ± 0.73
50 | AGAACATGCAAACATGCACACAGAAAAAAAAAATAT [CACACA_site8442] | 8.57 ± 0.25
51 | ATGTTACACAGACACACACACATAAAAAAACAAAAA [CACACA_site7516] | 7.95 ± 0.43
52 | TTTTTAAAAAATAAGAAAAAATAAATATATTACAAA [XGTACX_negctrl_site191] | 7.58 ± 0.54
53 | CAGCATGGTATACCTATAAAATATATATACTAACAT [TGCATGCA_negctrl_site51] | 7.6 ± 0.51
54 | CACATACATATATATACACACAAATATATATACGCA [CACACA_site791] | 7.82 ± 0.4
55 | GGCATATATACATATGGTACACATTTATTAATACCG [XGTACX_site2710] | 7.7 ± 0.52
56 | AGGATATAAAGTTGTGCATGTCAAGTGCACCGTATT [TGCATGCA_site451] | 11 ± 0.35
57 | AGAAAAATCTAAATTCGTACATAACGTTTAAACATA [XGTACX_site2511] | 7.47 ± 0.45
58 | GATGTGTATATTAAATGTACGAACAGTTGAGGCGAA [XGTACX_site7853] | 8.29 ± 0.36
59 | TTTTTATAAAAATGAACACACACATATATATATATA [CACACA_site9160] | 9.43 ± 0.69
60 | AATAACACTATTTAACGTACAAAAAAAAAAAAGAAA [XGTACX_site3721] | 7.79 ± 0.34
61 | ATATATCTTTATATAGTGCATTAAATATGTTGTAAT [GTGCAC_site9953] | 11.5 ± 0.54
62 | ATACTAAAAATGAATGTACACATATATATATATATA [TGCATGCA_negctrl_site209] | 9.48 ± 0.42
63 | AAAAAAAATAAAAATAGTACCCAAAAAATTATGAAT [XGTACX_site6641] | 7.8 ± 0.64
64 | TATAATAAAATATTTTGTACGTATATTTTAATATTT [XGTACX_site2582] | 7.75 ± 0.3
65 | AATTAATAAATATTATATGTTAATATTTTTTTTGTT [CACACA_negctrl_site1692] | 7.18 ± 0.49
66 | AGAGGAGTAAAACAAAACAAAGAGAAATAAACACAC [XGTACX_negctrl_site386] | 9.17 ± 0.26

Row | Sequence | gcPBM binding intensity (ln)
67 | AAAAAATATAATAATTGTACACATGCACACACAAAT [XGTACX_site1563] | 8.25 ± 0.48
68 | TTTCATATCTTGTCAAGTACATATTTTTATTTTCTT [XGTACX_site2160] | 7.6 ± 0.62
69 | ACTTAATATCGGTACACACACAAGATAAGAATTATG [CACACA_site894] | 8.06 ± 0.28
70 | AAAAAGGAAATAATAACACACATTAGTAATTATAAA [CACACA_site7573] | 7.47 ± 0.68
71 | CACAGACACGGACACACACACACAAAAAAAAAAAGA [CACACA_site4436] | 8.12 ± 0.014
72 | TATTTTCTTTAATTAATTATTGGTCTGAATGGGGTT [CACACA_negctrl_site418] | 7.61 ± 0.41
73 | TATTAAAAAAATATTTGTACTTAAAATTTATTATAT [XGTACX_site1467] | 7.62 ± 0.39
74 | ACAAAAAAAAAAAAAAAAAGAAGAATATATCTATAT [CACACA_negctrl_site759] | 7.3 ± 0.52
75 | TATCATACAATATTCACACAAATAAATTGACATATT [CACACA_site5891] | 7.46 ± 0.49
76 | AAGAGTTAAAAAAATACACACATATAGATTTTTTTA [CACACA_site7018] | 7.61 ± 0.51
77 | ATAAATAAAAAAGAAAGAAAGAAAGAAACAAACAAA [CACACA_negctrl_site1198] | 7.46 ± 0.73
78 | TATTAATGCAAATGTTATATGTGCATACATAAATGT [CACACA_negctrl_site790] | 8.76 ± 0.15
79 | TATTACATACATATCTGTACATATATTAATGCACAA [XGTACX_site3315] | 11.6 ± 1
80 | AAAAATATTAAAAAAGGTACACAGCATATCTCTTTT [XGTACX_site65] | 7.62 ± 0.63
81 | TCCAATTGTTCTAGTGTGCACATAAATAAATCTCAT | 10.1 ± 0.16
82 | TTCATATTCGATAAAGTGCATTAATTTTATTTATCA | 11.3 ± 0.73
83 | AATACTTTTTTCTGTACACACTTGATTTACTATAAT [CACACA_site5544] | 8.4 ± 0.45
84 | CAATTATTGTAATGCATGCACTGAATATAAAAAGAA | 9.92 ± 0.54
85 | TTTATATGTATTAAGTGTACACATATAATGTATTTT [XGTACX_site16] | 8.04 ± 0.13
86 | AAATTAATGTATATGTGAAGCAAGGGATGCGGCAGA [CACACA_negctrl_site406] | 8.28 ± 0.92
87 | ATATATATATATATATAATATATAATATATATATAT [CACACA_negctrl_site96] | 9.18 ± 0.31
88 | AAATATTATGTACGCACACACATTTTTAATATATAA [CACACA_site3851] | 8.53 ± 0.25
